{
  "source": "patent US6486166B1",
  "about": "“Suppression of cyclin kinase 2 activity for prevention and treatment of DNA viral infections” (Board of Regents, The University of Texas, priority 1997, dated 2002)",
  "key": {"[1]": {"tested_on": "human lung fibroblasts", "settings": "100 μg/ml (0.75 mM); cited from earlier work"}, "[2]": {"tested_on": "HCMV late antigen pp28", "test": "expression of viral late antigen pp28 in infected LU cells (immunofluorescence)", "assay_type": "cell-based, Human cytomegalovirus", "settings": "in the presence of PAA; between 24 and 96 hr after infection of LU cells", "procedure": "Cells were cultured on sterile glass coverslips. The cells were washed three times in PBS and fixed in acetone:methanol (1:1) at −20° C. for 10 min. The permeabilized cells were incubated with primary antibody diluted in PBS for 1 hr at 37° C. in a humidified chamber. […] The excess conjugate was removed by washing the cells in PBS for 30 min. After drying, the cells were mounted in PBS/glycerol (1:1) and examined with the aid of a Zeiss Photomicroscope III using a 40/1.0 Neofluar lens. Images were photographed on Kodak Ektachrome Elite 400 color slide film."}},
  "data": [
    {"smiles": "O=C(O)CP(=O)(O)O", "note": "[PAA, phosphonoacetic acid]", "values": [
      {"measurement": "effect on cellular DNA synthesis or population doubling times of uninfected cultures", "setting": "[1]", "result": "little or no effect"},
      {"measurement": "pp28 expression", "setting": "[2]", "result": "could not be detected"}
    ]}
  ]
}
